Measurements: the supplement of paper PMC12645437, “Orthogonal IMiD-Degron Pairs Induce Selective Protein Degradation in Cells” (ACS Chemical Biology, 2025)
The other results are listed elsewhere or left out.

target: no compound (DMSO); assay: log2 fold change of degron read counts, EGFP-low vs EGFP+ sorted cells; higher = lower degron-EGFP level without compound (poor expression or instability); settings: compound: DMSO control; 18 h
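Also: jurkat cells carrying a lentiviral library of mutant zinc finger degrons fused to EGFP plus mCherry, mCherry+ cells FACS sorted, degron abundance counted by next-generation sequencing.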

Row | Sequence | log2 fold change of degron read counts
1 | LHCPICGFCCTQKGNLLRHIKL | 1.38
2 | LNCEICGFWCTQKGNLLRHIKL | 1.74
3 | FICDICGAKFTQKGNLLRHIKL | -1.33
4 | FLCDVCGAQFTQKGNLLRHIKL | -1.75
5 | FQCPICGAKFTQKGNLLRHIKL | -0.164
6 | FTCEICGRWFTQKGNLLRHIKL | -0.776
7 | FQCNQCGHDFTQKGNLLRHIKL | -1.42
8 | FGCNQCGHMFTQKGNLLRHIKL | 0.702
9 | FACNQCGANFTQKGNLLRHIKL | -1.03
10 | FYCDQCGACFTQKGNLLRHIKL | -0.526
11 | FDCNQCGHQFTQKGNLLRHIKL | -0.571
12 | FICNVCGAQFTQKGNLLRHIKL | -0.489
13 | FMCNQCGADFTQKGNLLRHIKL | -1.3
14 | FKCPICGRVFTQKGNLLRHIKL | -1.18
15 | FHCDICGAQFTQKGNLLRHIKL | -1.46
16 | FACEICGRCFTQKGNLLRHIKL | -1.1
17 | FQCNQCGRLFTQKGNLLRHIKL | -0.0321
18 | LNCPICGFPCTQKGNLLRHIKL | 1.7
19 | FGCPVCGAYFTQKGNLLRHIKL | 0.572
20 | FYCEICGAIFTQKGNLLRHIKL | -0.136
21 | FYCEICGHIFTQKGNLLRHIKL | 0.748
22 | FCCNQCGHQFTQKGNLLRHIKL | -0.305
23 | LACNQCGFCCTQKGNLLRHIKL | 0.464
24 | FHCEICGHDFTQKGNLLRHIKL | -1.13
25 | FACDQCGANFTQKGNLLRHIKL | -2.09

Row | Sequence | log2 fold change of degron read counts
26 | LWCPICGFCCTQKGNLLRHIKL | 2.99
27 | FNCDVCGAGFTQKGNLLRHIKL | -1.6
28 | FYCNQCGHRFTQKGNLLRHIKL | 0.83
29 | FSCEICGRFFTQKGNLLRHIKL | -0.859
30 | LMCPICGFACTQKGNLLRHIKL | 0.75
31 | FTCDVCGAQFTQKGNLLRHIKL | -1.76
32 | FYCPQCGAIFTQKGNLLRHIKL | 0.445
33 | FWCNQCGAGFTQKGNLLRHIKL | 0.13
34 | LLCNQCGFNCTQKGNLLRHIKL | 0.53
35 | FYCEICGHYFTQKGNLLRHIKL | 0.291
36 | FNCDICGAIFTQKGNLLRHIKL | -0.54
37 | FQCEQCGAYFTQKGNLLRHIKL | -1.77
38 | FACEQCGADFTQKGNLLRHIKL | -0.899
39 | FTCNQCGHPFTQKGNLLRHIKL | 0.126
40 | FLCPICGAYFTQKGNLLRHIKL | 1.01
41 | FICNQCGREFTQKGNLLRHIKL | -1.01
42 | FCCDICGAQFTQKGNLLRHIKL | -1.67
43 | FNCPICGATFTQKGNLLRHIKL | -0.291
44 | FACEICGRPFTQKGNLLRHIKL | -0.0689
45 | FDCPICGANFTQKGNLLRHIKL | -0.871
46 | FGCEICGARFTQKGNLLRHIKL | -0.801
47 | FQCDVCGACFTQKGNLLRHIKL | -1.39
48 | FHCNICGAWFTQKGNLLRHIKL | 0.0724
49 | FRCNQCGAPFTQKGNLLRHIKL | -0.153
50 | FLCEICGRAFTQKGNLLRHIKL | -1.05
